The campaign covered roughly 110,000 compounds. About 230 (0.21%) showed an effect of 50% or more. The list shows a part of the results.
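Note: 30 min substrate incubation versus DMSO and 10 µM JCP410 controls.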

The target of the assay is DPAP1 (Plasmodium falciparum, UniProt Q8IIJ9). The experiment in a line: primary screen, percent inhibition; read by cleavage of a fluorogenic dipeptide substrate; higher = more effect of the substance. The arrangement: species or system P. falciparum D10 trophozoite lysates; single well.
Sequence of DPAP1 (Q8IIJ9 whole entry, looked up): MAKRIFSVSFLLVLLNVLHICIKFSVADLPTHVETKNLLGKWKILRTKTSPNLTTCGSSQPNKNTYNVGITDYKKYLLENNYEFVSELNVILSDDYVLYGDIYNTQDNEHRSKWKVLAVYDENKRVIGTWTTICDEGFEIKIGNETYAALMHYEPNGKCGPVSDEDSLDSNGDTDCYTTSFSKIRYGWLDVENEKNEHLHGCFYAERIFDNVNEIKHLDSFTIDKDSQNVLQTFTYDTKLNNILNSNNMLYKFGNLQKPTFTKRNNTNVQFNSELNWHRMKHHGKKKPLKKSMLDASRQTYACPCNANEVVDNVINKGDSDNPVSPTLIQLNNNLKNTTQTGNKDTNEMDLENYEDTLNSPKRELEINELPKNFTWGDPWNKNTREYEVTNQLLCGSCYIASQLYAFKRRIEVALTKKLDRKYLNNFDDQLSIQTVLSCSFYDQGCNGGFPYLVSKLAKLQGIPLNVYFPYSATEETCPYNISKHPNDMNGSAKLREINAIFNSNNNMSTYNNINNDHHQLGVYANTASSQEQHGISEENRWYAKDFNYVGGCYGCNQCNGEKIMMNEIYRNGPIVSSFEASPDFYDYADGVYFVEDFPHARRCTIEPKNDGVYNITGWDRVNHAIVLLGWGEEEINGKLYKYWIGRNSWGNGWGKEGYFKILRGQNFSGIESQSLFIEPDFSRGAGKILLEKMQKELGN
Consider `CCc1ccc(-c2nc(SCC(=O)NCCOC)c(-c3ccc(F)cc3)[nH]2)cc1`, for which the “% Inhibition @ 10 uM” value amounted to 3.48%. With `CCC(C)NC(=O)Cn1ncn2c(cc3cc(F)ccc32)c1=O` (stereo not drawn) the figure was 0.0198%; with `CCOC(=O)c1cn(CC)c2cc(N3CCOCC3)c(F)cc2c1=O`, -3.09%. With `CCN1CCCC1CNC(=O)CCCc1cn(CC)c2ccccc12` (stereo not drawn) the figure was 8.58%; with `COc1ccc2nc3c(O)n(C)cnc-3c2c1`, -5.48%; with `COc1ccc(CNC(=O)c2sc3nc4c(c(C(F)(F)F)c3c2N)CN(C(C)=O)CC4)cc1`, -8.43%.

As for `O=C(CSc1nnnn1-c1ccccc1)NCCC12CC3CC(CC(C3)C1)C2`, the “% Inhibition @ 10 uM” value was -3.04%. As for `CC(C)CCNC(=O)c1cc(C2CC2)[nH]n1`, the “% Inhibition @ 10 uM” value worked out at 5.29%. For `Cc1nn(C(=O)CCC(=O)NC2CCCC(C)C2C)c2ccccc12` (stereo not drawn), the “% Inhibition @ 10 uM” value came to 6.89%. As for `Cc1ccc(S(=O)(=O)Nc2ccc3oc(=O)sc3c2)c(C)c1`, the “% Inhibition @ 10 uM” value is listed as -6.65%.

On to `CC(CNC(=O)c1ccc(S(=O)(=O)N(C)C)cc1)OC12CC3CC(CC(C3)C1)C2` (stereo not drawn), for which the “% Inhibition @ 10 uM” value came to 0.9%. With `CCOC(=O)N1CCC(NCc2c(C(=O)O)c(C)n(Cc3ccc(C)cc3)c2C)CC1` the figure was -5.49%; with `COc1ccccc1CNc1nc2ccccc2n2nnnc12`, 1.3%; with `Cc1nc(=O)c(-c2ccccc2)c(C)n1-c1ccc(O)cc1`, 2.81%. With `Cc1cnc(-c2ccc(Br)cc2)nc1` the figure was -2.12%; with `Fc1ccc(CNCc2ccncc2)cc1`, -1.72%; with `Cc1ccc(OCC(=O)N(Cc2ccccc2F)C2CCS(=O)(=O)C2)cc1C` (stereo not drawn), -1.35%. On to `COc1ccc(C(=O)/C=C/c2c[nH]c3ccc(Br)cc23)cc1`, for which the “% Inhibition @ 10 uM” value is reported as 6.8%. With `Clc1nc(-c2ccccn2)cc2ccccc12` the figure was 3.05%. Take `Cc1c(C(=O)N2CCCC2)oc2c1-c1nn(CC(=O)N3CCN(C)CC3)cc1CC2`: the “% Inhibition @ 10 uM” value is given as -1.67%.

For `CCOC(=O)c1conc1-c1ccc(CC)cc1`, the “% Inhibition @ 10 uM” value is -1.56%. With `O/N=C(\CCc1ccccc1)C1(O)CCCCC1` the figure was 3.06%; with `C=C(C)[C@@H]1CC=C(CN(CC(C)O)CC(C)O)CC1` (stereo partly drawn), 1.74%; with `CCOC(=O)C1=C(CC)OC(N)=C(C#N)C1c1ccc2ccccc2c1` (stereo not drawn), -1.93%. With `COc1cc(CN(CCCN(C)C)CCCN(C)C)ccc1OCc1ccccc1` the figure was 3.24%.

Consider `Nc1c(C(=O)NCc2ccccc2)c2nc3ccccc3nc2n1Cc1ccco1`, for which the “% Inhibition @ 10 uM” value was 3.38%.

On to `Oc1nc2ccccc2c2ocnc12`, for which the “% Inhibition @ 10 uM” value amounted to 6.5%. Next, `Cc1ccc(C2C(C#N)=C(N)OC3=C2C(=O)CC(C)(C)C3)o1` (stereo not drawn): 5.58%; `CN1CCN(C(=O)c2cnn(-c3ccccc3Cl)c2C2CCN(C(=O)OC(C)(C)C)CC2)CC1`: 2.09%. Next, `COc1ccc(OCC(=O)Nc2ccc(S(=O)(=O)Nc3cccc(Cl)c3Cl)cc2)cc1`: 2.84%; `COc1ccccc1N1CCN(C(=O)CN2C(=O)c3cccc4cccc2c34)CC1`: -4.7%.

On to `COc1cc(C(=O)NCC(c2cccnc2)N2CCN(C)CC2)cc(OC)c1OC` (stereo not drawn), for which the “% Inhibition @ 10 uM” value is on record as -2.29%. With `CC1S[C@@H](C(=O)NCC#N)CN1C(=O)OCc1ccccc1` (stereo partly drawn) the figure was -4.82%. In the case of `CCN(CC)CCNc1ncnc2sc3c(c12)CCC(C)C3` (stereo not drawn), the “% Inhibition @ 10 uM” value is recorded as -2.65%.

`COc1ccc(C2C3=C(O)CCCC3=NC(C)=C2C(=O)OC2CCCC2)c(OC)c1OC` (stereo not drawn): the “% Inhibition @ 10 uM” value is reported as 7.24%. As for `Cc1ccc(-c2nc(SCC(=O)NCC3CCCO3)c(-c3ccccc3)[nH]2)cc1` (stereo not drawn), the “% Inhibition @ 10 uM” value is listed as 6.59%.

For `CCOCCCNC(=O)c1cc2c(s1)-c1ccccc1OC2`, the “% Inhibition @ 10 uM” value is listed as -8.58%. With `COc1ccc(-n2nc3c(N4CCC(C(=O)NCc5ccco5)CC4)nnc(C)c3c2C)cc1` the figure was -1.05%. With `CCOC(=O)C1=CN(C(C)C)C=C(C(=O)OCC)C1c1ccc(OC)cc1OC` the figure was 0.219%.

Regarding `CCOC(=O)c1cn(CC)c2cc(N3CCSCC3)c(F)cc2c1=O`, the “% Inhibition @ 10 uM” value is -3.09%.

As for `Cc1ccc(NC(=O)CSc2n[nH]c(-c3cccc(Br)c3)n2)cc1`, the “% Inhibition @ 10 uM” value is 2.15%.

Regarding `CCOc1ccc(NC(=O)c2cccc([N+](=O)[O-])c2C)cc1`, the “% Inhibition @ 10 uM” value was -2.82%. With `O=C1CC(c2ccc(Cl)cc2)NC(NC(=O)c2ccc(Oc3ccccc3)cc2)=N1` (stereo not drawn) the figure was 0.0603%; with `COc1ccc(S(=O)(=O)N(CC(=O)NCC2CCCO2)c2ccc(Cl)cc2)cc1` (stereo not drawn), 2.01%. Consider `COc1ccc(C2C(C#N)=C(N)Oc3[nH]nc(-c4cccs4)c32)cc1O` (stereo not drawn), for which the “% Inhibition @ 10 uM” value is reported as -1.38%. Regarding `Oc1ccc(Cl)cc1-c1nc2ccccc2s1`, the “% Inhibition @ 10 uM” value is reported as -5.33%.

Turning to `CCOC(=O)c1c(NC(=O)N(Cc2ccc(C)o2)C2CCN(C(C)=O)CC2)sc2c1CCCC2`, the “% Inhibition @ 10 uM” value was 3.7%. Consider `S=C1NCN(CCc2ccccc2)CN1CCCN1CCOCC1`, for which the “% Inhibition @ 10 uM” value is reported as -3.74%. For `Cc1ccc(C)n1-c1nnc(N2CCC(C(=O)NC3CCCc4ccccc43)CC2)s1` (stereo not drawn), the “% Inhibition @ 10 uM” value was -2.25%. Next, `COc1ccc(C(=O)Cn2c(N3CCCCCC3)nc3c2c(=O)n(C)c(=O)n3C)cc1`: 2.29%. Regarding `CCOc1cc2c(cc1OCC)C(c1ccc(OC)cc1F)NCC2` (stereo not drawn), the “% Inhibition @ 10 uM” value worked out at 5.25%. Next, `Cc1cc(C)c(S(=O)(=O)Nc2ccccc2Cl)c(C)c1`: -1.7%. On to `CCOCCCNC(=O)CCc1nnc2n(CCC(C)C)c(=O)c3ccccc3n12`, for which the “% Inhibition @ 10 uM” value is -6.95%. Next, `Oc1c2c(nc3cc(-c4ccco4)nn13)CCC2`: -2.2%; `Cc1nnc(N2CCCC(C(=O)NCc3ccccn3)C2)c2nn(-c3ccc(Cl)cc3)c(C)c12` (stereo not drawn): 5.52%. For `Cc1ccc(-c2nc(/C=N/c3cccc(C)n3)c(O)o2)cc1`, the “% Inhibition @ 10 uM” value is on record as -9.38%. `CCCc1nn(C)c2c(O)nc(-c3ccccc3OCC)nc12`: the “% Inhibition @ 10 uM” value is 0.231%. With `Cc1cc(C(=O)NCCc2c[nH]c3ccccc23)c2c(C)nn(-c3ccccc3Cl)c2n1` the figure was 0.44%; with `COc1ccc(OC)c(CN2CCN(c3cccc(Cl)c3)CC2)c1`, 0.605%. With `CC(C)OCCCNC(=O)CSc1c2c(nc3cc(Cl)ccc13)CCCC2` the figure was -9.07%; with `O=C(c1ccccc1)c1ccccc1C(=O)N1CCCCC1`, 4.55%. Next, `COc1cccc(-c2nnc3n(CCc4ccccc4)c(=O)c4ccccc4n23)c1OC`: 1.68%; `CCOCCCNC(=O)c1sc2nc(C)cc(C)c2c1-n1cccc1`: -4.68%.

With `CCOCCCn1nnc2c(O)nc(C(=O)NCc3cccc(Cl)c3)nc21`, the “% Inhibition @ 10 uM” value is -7.46%. Next, `CC1=C(C)CC(C(=O)Nc2ccc3c(c2)oc2ccccc23)C(C(=O)O)C1` (stereo not drawn): -6.24%; `Cc1cc(NC(=O)c2sc3nc4c(cc3c2N)CC(C)CC4)no1` (stereo not drawn): 2.95%; `C#CCOc1nc(OCC#C)nc(N2CCOCC2)n1`: 0.558%. With `COC(=O)c1ccc(CS(=O)(=O)c2c(Cl)cccc2Cl)o1` the figure was -0.256%; with `O=C(O)c1c(CNCCCN2CCOCC2)c2ccccc2n1Cc1ccc(F)cc1Cl`, -5.05%. Regarding `Cc1cc(C)nc(N2CCC(NC(=O)NC34CC5CC(CC(C5)C3)C4)CC2)n1`, the “% Inhibition @ 10 uM” value is 2.25%.

With `CCOc1ccccc1C1CC(=O)Nc2cc3c(cc21)OCO3` (stereo not drawn), the “% Inhibition @ 10 uM” value was 5.15%. With `O=C(c1ccccc1Cl)N1CCCC(c2nc(O)c3nnn(Cc4ccco4)c3n2)C1` (stereo not drawn) the figure was -4.07%; with `CCn1c(C)c(C)c2cc(C(=O)NCc3ccccc3Cl)ccc21`, -2.46%. `CC1SC(c2ccccc2)N(CC(O)c2ccc([N+](=O)[O-])cc2)C1=O` (stereo not drawn): the “% Inhibition @ 10 uM” value is recorded as -6.99%.

Turning to `Cc1cccc(NC(=N)Nc2nc(O)c3c(n2)CCCC3)c1`, the “% Inhibition @ 10 uM” value is listed as -6.05%. With `COc1cc(C)c(/C=C/C(C)=O)c(C)c1C` the figure was -6.46%. Next, `O=C(NCCc1ccc(Cl)cc1)C1CCCN(S(=O)(=O)N2CCC3(CC2)OCCO3)C1` (stereo not drawn): -1.97%.

Regarding `CC(=O)c1ccc(Nc2ncnc(Nc3ccc(C(C)=O)cc3)c2[N+](=O)[O-])cc1`, the “% Inhibition @ 10 uM” value is recorded as 1.04%. As to `Cc1cc(CN2CCCC(O)C2)c(C)n1-c1cccc(C(F)(F)F)c1` (stereo not drawn), the “% Inhibition @ 10 uM” value is reported as 1.57%. Next, `COc1ccc(-n2c(CCC(=O)O)ccc2-c2ccc(F)cc2)c(OC)c1`: -2.14%; `COc1cc(C(=O)N2CCN(C(=O)c3cc(-c4ccc(Cl)cc4)[nH]n3)CC2)cc(OC)c1OC`: -3.77%. With `Cc1ccc(OCC(=O)N2CCCc3ccccc32)cc1`, the “% Inhibition @ 10 uM” value is reported as -2.3%. On to `COc1ccc(-c2nnc(NC(=O)c3ccc(F)cc3)s2)cc1`, for which the “% Inhibition @ 10 uM” value turned out to be 5.94%.

Take `COc1ccccc1CNS(=O)(=O)c1ccc(-c2cc(C)no2)cc1`: the “% Inhibition @ 10 uM” value is recorded as -2.92%. With `Cc1ccc(Cn2c3ccccc3c3nnc(NCCCN4CCCC4=O)nc32)cc1` the figure was -2.79%. With `Cc1ccc(S(=O)(=O)N(C)Cc2nc(-c3ccc(Cl)cc3)no2)cc1` the figure was -5.15%.

Turning to `COc1ccc(-c2cc(C(=O)NC(C)(C)CO)on2)cc1OC`, the “% Inhibition @ 10 uM” value is on record as -0.0401%. Next, `Cc1oc2ccc(O)cc2c1C(=O)c1ccc(F)cc1`: -0.28%. With `COc1ccc2c(c1)C(C(C(C)=O)C(=O)c1ccc(C)cc1)c1ccccc1O2` (stereo not drawn) the figure was 3.93%; with `COc1ccc(C2(C(=O)Nc3cc(C)ccc3OC)CCOCC2)cc1`, -4.71%. Next, `NS(=O)(=O)c1ccc(NC(=O)c2ccc(N3C(=O)CCC3=O)cc2)cc1`: -3.95%; `CC(C)CC(NC(=O)C1CCNCC1)C(=O)NC(CCc1ccccc1)CCS(=O)(=O)c1ccc2ccccc2c1` (stereo not drawn): -5.64%. For `CCOC(=O)c1cc2c(=O)n3cccc(C)c3nc2n(CCOC)c1=N`, the “% Inhibition @ 10 uM” value came out at 1.97%. With `COc1ccc(C2CC(c3ccc(Br)cc3)=NN2S(C)(=O)=O)cc1` (stereo not drawn) the figure was 0.13%. Regarding `O=C(O)CC(CC(=O)Nc1nn[nH]n1)c1ccccc1` (stereo not drawn), the “% Inhibition @ 10 uM” value is -3.23%. As to `Cc1ccc2cnn(CCCC(=O)NCc3ccccc3)c2c1`, the “% Inhibition @ 10 uM” value is -2.88%. Next, `Cn1c(=O)c2c(nc3n(-c4ccccc4)c(-c4ccc(F)cc4)cn23)n(C)c1=O`: 3.9%; `[O-]/[N+](=C\c1cccc(Br)c1)c1ccccc1`: 4.41%. Next, `Nc1ncnc2ncc3c4ccccc4[nH]c3c12`: 2.17%.

The values are drawn from paper PMC6919601, “Identification of Plasmodium dipeptidyl aminopeptidase allosteric inhibitors by high throughput screening” (PLoS ONE, 2019).
